# The antibiotic and cytotoxicity screens of Wong et al. (2023)
# This is one part of the list.
# Tested on: HepG2
# Assay: cytotoxicity call (relative viability < 0.9)
# Details: 10 µM
row,Compound,cytotoxicity call
1,C[C@@H]1CN([C@@H](C)CO)C(=O)c2cc(NC(=O)CCC(F)(F)F)ccc2O[C@@H](C)CCCCO[C@@H]1CN(C)C(=O)NC1CCCCC1,inactive
2,C[C@H]1CN([C@@H](C)CO)S(=O)(=O)c2ccc(C3=CCCC3)cc2O[C@H]1CN(C)S(=O)(=O)c1cn(C)cn1,inactive
3,Cc1noc(C)c1NC(=O)N(C)C[C@H]1Oc2ccc(NS(C)(=O)=O)cc2C(=O)N([C@@H](C)CO)C[C@H]1C,inactive
4,N=C(N)SCc1csc(N)n1,inactive
5,Cc1noc(C)c1S(=O)(=O)Nc1ccc2c(c1)C(=O)N([C@@H](C)CO)C[C@@H](C)[C@@H](CN(C)Cc1ccc(-c3ccccc3)cc1)O2,inactive
6,C=CC[C@@H](CC(=O)N[C@H](CO)Cc1ccccc1)C(=O)N[C@H](C)COC(=O)[C@@H](CC=C)CC(=O)OC(C)(C)C,inactive
7,CCCCN1C[C@H](O)[C@@H](O)[C@H](O)[C@H]1CO,inactive
8,Cc1noc(C)c1NC(=O)N(C)C[C@@H]1Oc2ncc(C#CCC(C)C)cc2C(=O)N([C@H](C)CO)C[C@@H]1C,inactive
9,C[C@@H]1CN([C@H](C)CO)C(=O)Cc2cc(NC(=O)Nc3ccc(C(F)(F)F)cc3)ccc2O[C@H]1CN(C)C(=O)Nc1ccc(C(F)(F)F)cc1,inactive
10,COc1ccc(NC(=O)N(C)C[C@H]2Oc3c(NC(=O)Nc4ccc(C(F)(F)F)cc4)cccc3C(=O)N([C@@H](C)CO)C[C@@H]2C)cc1,inactive
11,Cc1noc(C)c1NC(=O)N[C@H]1CC[C@@H](CC(=O)N2CCN(C)CC2)O[C@H]1CO,inactive
12,Cc1noc(C)c1NC(=O)N(C)C[C@H]1OCCCC[C@@H](C)Oc2ccc(NC(=O)Nc3ccc4c(c3)OCO4)cc2C(=O)N([C@@H](C)CO)C[C@H]1C,inactive
13,COc1ccccc1CNC(=O)C[C@H]1CC[C@H]2[C@@H](COC[C@@H](O)CN2C(=O)Nc2ccc(F)cc2)O1,inactive
14,C[C@@H]1CN([C@H](C)CO)C(=O)CCCn2nncc2CO[C@H]1CN(C)C(=O)Nc1ccc2c(c1)OCCO2,inactive
15,Cc1ccc(S(=O)(=O)N(C)C[C@H]2OCCCC[C@@H](C)Oc3ccc(NC(=O)Nc4c(C)noc4C)cc3C(=O)N([C@H](C)CO)C[C@H]2C)cc1,inactive
16,COc1ccc(S(=O)(=O)Nc2ccc3c(c2)[C@@H]2C[C@@H](CC(=O)NCC4CC4)O[C@H](CO)[C@@H]2O3)cc1,inactive
17,CN(C)CCOc1c(Br)cc(/C=C/C(=O)NCCCOc2c(Br)cc(CCN(C)C)cc2Br)cc1Br,active
18,CN1CCN(C(=O)C[C@@H]2CC[C@H]3[C@@H](COc4ccc(NC(=O)c5cccs5)cc4C(=O)N3C)O2)CC1,inactive
19,C[C@@H]1CN([C@H](C)CO)C(=O)c2cc(NC(=O)Nc3ccccc3)ccc2O[C@@H]1CN(C)Cc1ccc(Oc2ccccc2)cc1,active
20,C[C@@H]1CN([C@H](C)CO)C(=O)c2cc(NC(=O)CCC(F)(F)F)ccc2O[C@@H](C)CCCCO[C@@H]1CN(C)Cc1ccc(C(F)(F)F)cc1,inactive

row,Compound,cytotoxicity call
1,CNC(=O)c1c(I)c(C(=O)NCC(=O)Nc2c(I)c(C(=O)O)c(I)c(C(=O)NCCO)c2I)c(I)c(N(C)C(C)=O)c1I,inactive
2,C[C@@H]1CN([C@H](C)CO)C(=O)c2cccc(NC(=O)Nc3ccccc3)c2O[C@H]1CN(C)Cc1ccc(C(=O)Nc2ccccc2N)cc1,inactive
3,NCc1ccc(-c2ccccc2O)cc1,inactive
4,C[C@H](CO)N1C[C@H](C)[C@@H](CN(C)Cc2ccc(Oc3ccccc3)cc2)Oc2ccc(NC(=O)C3CC3)cc2C1=O,inactive
5,Cc1occc(=O)c1O,inactive
6,CCN(CC)c1ncc(C#N)c(N)n1,inactive
7,CN1CC(O)C2=CC(=NNC(N)=O)C(=O)C=C21 (stereo not given),inactive
8,Nc1ccccc1C(=O)N[C@H]1CCCCNC1=O,inactive
9,C[C@H]1CN([C@@H](C)CO)C(=O)c2cc(NC(=O)C3CCCCC3)ccc2O[C@@H]1CN(C)Cc1ccc(Cl)c(Cl)c1,inactive
10,COc1ccc(S(=O)(=O)Nc2ccc3c(c2)C(=O)N([C@H](C)CO)C[C@@H](C)[C@H](CN(C)Cc2ccc(Oc4ccccc4)cc2)O3)cc1,active
11,Cc1noc(C)c1NC(=O)Nc1ccc2c(c1)CC(=O)N([C@@H](C)CO)C[C@@H](C)[C@@H](CN(C)C(=O)Nc1ccc(C(F)(F)F)cc1)O2,inactive
12,COc1ccc(NC(=O)Nc2cccc3c2O[C@H](CN(C)S(=O)(=O)c2cn(C)cn2)[C@@H](C)CN([C@H](C)CO)C3=O)cc1,inactive
13,O=C(C[C@H]1CC[C@@H]2[C@H](COC[C@@H](O)CN2S(=O)(=O)c2cccc(Cl)c2)O1)NCCCN1CCOCC1,inactive
14,CC[C@H]1OC[C@@H]2CN(C(=O)CN(C)C)CC[C@H]21,inactive
15,C[C@@H]1CN([C@H](C)CO)C(=O)c2cccc(NC(=O)c3cnccn3)c2O[C@@H]1CN(C)C(=O)Nc1ccc(F)cc1,inactive
16,O=c1ccn([C@@H]2O[C@H](COP(=O)(O)OP(=O)(O)OP(=O)(O)OP(=O)(O)OC[C@H]3O[C@@H](n4ccc(=O)[nH]c4=O)[C@H](O)[C@@H]3O)[C@@H](O)[C@H]2O)c(=O)[nH]1,inactive
17,O=C(N[C@@H]1CC[C@H](CCn2cc(C3(O)CCCC3)nn2)O[C@@H]1CO)C1CCOCC1,inactive
18,NCc1cccc(N2CCCC2)c1,inactive
19,C[C@H](CO)N1C[C@H](C)[C@@H](CN(C)C(=O)NC2CCCC2)Oc2cc(Br)ccc2S1(=O)=O,inactive
20,Cc1cc(NC(=O)C2=C(O)c3ccccc3S(=O)(=O)N2C)no1,inactive
